PubChem BioAssay AID2451 (National Center for Advancing Translational Sciences (NCATS), 2010)
Where “and” joins values, the source holds several entries; their conditions need not be identical. Equal entries are not always repeated. In all, about 290,000 compounds went through this assay and about 2,100 (0.72%) were called active. The shares of active, inactive and inconclusive entries below differ from those in the screen. The call rests on the fitted dose curve; in most records, active means well fitted inhibition curve with a large enough effect; inconclusive means small, poorly fitted or top-dose-only effect, or effect the other way; inactive means flat fitted curve, though single readings scatter. Where the call is inconclusive, the potency comes from a doubtful curve fit.

molecular target: Fructose-bisphosphate aldolase (Giardia intestinalis (strain ATCC 50803 / WB clone C6)) (UniProt A8B2U2); experiment: qHTS Assay for Inhibitors of Fructose-1,6-bisphosphate Aldolase from Giardia Lamblia; settings: purified Giardia FBPA; series mostly up to 59.6 µM; further: nearly all actives have a fitted effect of over 55% in size
Sequence of UniProt A8B2U2 (A8B2U2 whole entry, looked up): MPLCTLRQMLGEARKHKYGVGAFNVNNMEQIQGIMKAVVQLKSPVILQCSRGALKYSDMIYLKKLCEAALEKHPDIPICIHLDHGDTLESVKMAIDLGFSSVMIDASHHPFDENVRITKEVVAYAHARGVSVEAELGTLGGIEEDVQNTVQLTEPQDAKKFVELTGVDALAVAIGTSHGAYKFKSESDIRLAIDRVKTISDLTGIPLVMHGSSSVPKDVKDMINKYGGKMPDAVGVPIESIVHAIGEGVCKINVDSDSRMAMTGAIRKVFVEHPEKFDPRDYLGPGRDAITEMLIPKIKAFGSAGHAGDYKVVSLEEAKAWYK
Procedure, shortened: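 40 nM FBPA preincubated 10 min at RT with compound (up to 57.5 uM final), then substrate plus GAPDH/TPI/NAD/arsenate coupling and diaphorase/resazurin added. Fluorescence read after 20 min at RT, 525/598 nm.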
Potency means the concentration at half of the fitted maximal effect; tags describe the fitted curve by direction and shape.

SMILES	Potency
Brc1ccccc1OCCN1CCOCC1	active: 28.2 µM
O=C(Nc1nnc(-c2ccc(Cl)cc2)o1)c1nc2ccccc2s1	inconclusive: 19.9 µM [activator, partial curve]
S=C(Nc1cccc(Cl)c1)Nc1ccc2c(c1)OCCO2	inconclusive: 20 µM [inhibitor, partial curve]
O=c1c2cc(Cl)ccc2nc(-c2ccc([N+](=O)[O-])cc2)n1O	inconclusive: 19.9 µM [inhibitor, single point]
Fc1cccc(NC(=S)NNc2ccccc2)c1	inconclusive: 1.78 µM [inhibitor, partial curve, poor fit]
CC(Sc1ccc([N+](=O)[O-])cn1)C(=O)Nc1nccs1 (stereo not given)	inconclusive: 31.6 µM [inhibitor, single point]
CCOC(=O)c1cc(C(=O)Nc2ccc(C)c(F)c2)nn1C	inactive
N#Cc1c(-c2ccco2)cc(-c2cccnc2)nc1N	inconclusive: 22.3 µM [inhibitor, partial curve]
O=C(O)CC/C(=N/NC(=O)c1cn(-c2ccccc2)nc1-c1ccccc1)C(=O)O	inactive
Cc1ccc[n+](C(C)C(=O)c2ccc(Cl)cc2)c1 (stereo not given)	inactive
CCOC(=O)c1ccc(NC(=S)Nc2cccc(N)n2)cc1	inconclusive: 12.6 µM [inhibitor, partial curve]
Cc1ccc(-n2cc3c(=O)n(C)c(=O)n(C)c3c2)cc1C	inconclusive: 28.2 µM [inhibitor, single point]
O=C(Cc1c[nH]c2ccccc12)OCCOC(=O)Cc1c[nH]c2ccccc12	inactive
NC(CCC(=O)NC(CCSC(CC(=O)O)C(=O)O)C(=O)NCC(=O)O)C(=O)O (stereo not given)	inconclusive: 19.9 µM [inhibitor, partial curve]
O=C(CN1CCN(S(=O)(=O)c2ccc(F)cc2)CC1)c1ccc(O)c(O)c1	active: 19.9 µM
CSc1ccc(CN2CCN(C(=O)COc3cccc(C)c3)CC2)cc1	inconclusive: 19.9 µM [inhibitor, partial curve]
O=C(O)CCc1nn2cc(-c3ccccc3)nc2[nH]c1=O	inconclusive: 12.6 µM [inhibitor, partial curve]
CO[C@@]1(NC(=O)Cc2cccs2)C(=O)N2C(C(=O)O)=C(COC(N)=O)CSC21 (stereo not given in full)	inconclusive: 17.7 µM [inhibitor, partial curve]
O=C(O)c1cccc(NS(=O)(=O)c2ccc3nnn(O)c3c2)c1	inconclusive: 17.7 µM [activator, single point]
CCCCN1C(=O)CC(Sc2ncccc2C(=O)O)C1=O (stereo not given)	inactive
Cc1onc(-c2ccccc2)c1C(=O)N/N=C/c1cc(Br)c(O)c(Br)c1	inactive
COc1ccc(C(=O)NCCc2cc3ccc(C)c(C)c3[nH]c2=O)cc1OC	inactive
COC/C=C/C1=CC2=CC(=O)C(C)(OC(=O)c3cnc4ccccc4n3)C(=O)C2=CN1Cc1ccccc1 (stereo not given)	active: 2.23 µM
C[C@H](NC(=O)c1[nH]cnc1C(=O)Nc1ccc(CNC(=O)OC(C)(C)C)cc1)C(=O)OC(C)(C)C	inconclusive: 25.1 µM [inhibitor, single point]

SMILES	Potency
Cc1cccc(N2C(=O)NC(=O)/C(=C/c3ccc([N+](=O)[O-])o3)C2=O)c1	inconclusive: 14.1 µM [inhibitor, partial curve]
Cc1cccc(C(=O)OC(C)CN2CCCC2)c1 (stereo not given)	inconclusive: 28.2 µM [inhibitor, partial curve]
COc1ccc(NC(=O)c2cc3ccccc3o/c2=N\NS(=O)(=O)c2ccc(C)cc2)cc1	inconclusive: 28.2 µM [inhibitor, partial curve]
Cc1cc(NC(=O)CCC(=O)N(CC(=O)NCC2CCCO2)c2ccc(C(C)C)cc2)no1 (stereo not given)	inactive
COc1ccc(CNCc2c(F)cccc2F)cc1OC	inconclusive: 10 µM [inhibitor, partial curve]
C=CCNc1nnc(SCC(=O)N2CCCCC2)c2ccccc12	inconclusive: 14.1 µM [inhibitor, partial curve]
COc1ccc(CNCc2ccco2)cc1OCc1ccccc1	inconclusive: 3.98 µM [inhibitor, full curve]
COc1cccc(OC)c1OCCCCn1cnc2ccccc2c1=O	inconclusive: 15.8 µM [inhibitor, partial curve]
CCOP(=S)(OCC)Oc1cc(C)oc(=O)c1Cl	inconclusive: 15.8 µM [inhibitor, single point]
COc1cc(NC(=O)CSc2ncnc3scc(-c4ccccc4)c23)c(C(=O)O)cc1OC	inconclusive: 17.7 µM [activator, single point]
Cc1sc2ncnc(NCc3cccnc3)c2c1C	inactive
CC(C)C(CCNC1CCN(C)CC1)c1ccc(Cl)cc1 (stereo not given)	inconclusive: 15.8 µM [inhibitor, partial curve]
CCSC1=N/C(=C\c2ccc(-c3ccccc3[N+](=O)[O-])o2)C(=O)S1	inconclusive: 1.58 µM [inhibitor, full curve]
COc1ccc(CN2CCN(C(=O)c3cccs3)CC2)cc1	inconclusive: 22.3 µM [inhibitor, single point]
CCCC(c1nnnn1C(C)(C)CC)N1CCN(C(=O)c2ccco2)CC1 (stereo not given)	inconclusive: 39.8 µM [inhibitor, single point]
C[C@@](N)(Cc1ccc(O)c(O)c1)C(=O)O	active: 3.54 µM and active: 22.3 µM
O=C(CNCc1ccco1)Nc1ccc(N2CCCCCC2)cc1	active: 17.7 µM
CN1CCN(CC(=O)Nc2nc3ccccc3s2)CC1	inconclusive: 7.94 µM [inhibitor, partial curve]
Cc1ccc(C(=O)NC(=S)NNC(=O)c2cccc([N+](=O)[O-])c2)cc1	inconclusive: 39.8 µM [activator, single point]
COc1cc(C2c3cc4c(cc3C(OC(C)=O)[C@H]3COC(=O)C23)OCO4)cc(OC)c1OC (stereo not given in full)	inactive
CCCN(Cc1ccc(N(C)C)cc1)CC1CC1	inconclusive: 17.7 µM [inhibitor, single point]
O=P(O)(O)CP(=O)(O)O	active: 6.29 µM
COc1cc2[nH]c(=S)nc(NC3CCCC3)c2cc1OC	inconclusive: 17.7 µM [inhibitor, single point]
COc1cc(CNC2CCCCCC2)cc(OC)c1OC	inconclusive: 17.8 µM [inhibitor, partial curve]

SMILES	Potency
O=C(NCc1csc(-c2cccs2)n1)Nc1ccc(F)cc1F	inactive
Cc1cc(=O)[nH]c(=S)[nH]1	inconclusive: 15.8 µM [inhibitor, single point] and inconclusive: 15.8 µM [inhibitor, partial curve]
CCOc1cccc(=O)c2c(C)n(CC3CCCO3)c(C)c12 (stereo not given)	inconclusive: 19.9 µM [inhibitor, partial curve]
Cc1oc2c(c1C(=O)O)C(=O)c1ccccc1C2=O	inconclusive: 3.15 µM [inhibitor, partial curve]
COC(=O)c1cccc(Nc2nc(-c3cccnc3)nc3ccccc23)c1	inactive
CCN(CC)C(=O)CN1CCN(c2ncccn2)CC1	inconclusive: 35.4 µM [inhibitor, single point]
O=C1CC(/C=C/c2ccccc2)=Nc2ccccc2N1	inactive
CC1(OC(=O)C2CCCC2)C(=O)C=C2C=C(c3ccsc3)N(CCCCO)C=C2C1=O (stereo not given)	inconclusive: 397 nM [inhibitor, full curve] and inconclusive: 446 nM [inhibitor, partial curve]
COC(=O)c1cc(C)[nH]c2c(C)cc3nc4ccccc4c3c12	inconclusive: 15.8 µM [inhibitor, single point]
C=CC1=C2C=C(C3CC3)N(CCN3CCOCC3)C=C2C(=O)C(C)(OC(=O)c2ccco2)C1=O (stereo not given)	inconclusive: 1.26 µM [inhibitor, full curve, poor fit]
Cc1[nH]c2ccccc2c1C(c1ccccn1)c1c(C)[nH]c2ccccc12	inconclusive: 3.97 µM [inhibitor, full curve]
COc1ccc(OC)c(-n2c(C)ccc2-c2ccc(S(C)(=O)=O)cc2)c1	inconclusive: 15.8 µM [inhibitor, single point]
COc1cccc(N2C(=O)CC(Sc3nc(C)cc(C)n3)C2=O)c1 (stereo not given)	inactive
COc1ccccc1NC(=O)c1c(NC(=O)CCC(=O)O)sc2c1CCCCC2	inconclusive: 44.6 µM [inhibitor, single point]
Cc1ccc(S(=O)(=O)C(C#N)c2nc3ccccc3nc2N2CCCC2)cc1 (stereo not given)	inconclusive: 4.46 µM [inhibitor, full curve]
CCN(CC)c1nc(N)c2c(N)n(-c3ccccc3C)c(=S)c(C#N)c2c1C#N	inconclusive: 7.92 µM [inhibitor, full curve, poor fit]
O=c1c(=Nc2ccccc2O)c(=O)c2ccccc12	inconclusive: 17.7 µM [inhibitor, single point]
CCOc1ccc(CN2CCN(Cc3c[nH]c4ccccc34)CC2)cc1	inconclusive: 28.2 µM [inhibitor, partial curve]
COc1ccc(/C=N/NC2=NS(=O)(=O)c3ccccc32)cc1	active: 4.47 µM
COc1cccc(NC(=S)Nc2cccc3ccccc23)c1	inconclusive: 28.2 µM [inhibitor, single point]
CC1CCN(c2ccc(/C=N\Nc3nncn3N)cc2[N+](=O)[O-])CC1	active: 11.2 µM
COC(=O)C/C=N/N=C1/NC(=O)/C(=C/C(=O)O)S1	active: 17.7 µM
